Results published in PMC4336329 (PLoS ONE, 2015).
Screen size: about 310,000 compounds; about 2,200 (0.71%) showed an effect of 50% or more. Effects have a minus sign here. The list shows a part of the results.

The compounds below were run against human ether-à-go-go-related gene (hERG) potassium channel (human, UniProt Q12809) (assay: primary screen, population patch clamp on CHO cells stably expressing hERG).
Chain of human ether-à-go-go-related gene (hERG) potassium channel (Q12809 whole entry, looked up): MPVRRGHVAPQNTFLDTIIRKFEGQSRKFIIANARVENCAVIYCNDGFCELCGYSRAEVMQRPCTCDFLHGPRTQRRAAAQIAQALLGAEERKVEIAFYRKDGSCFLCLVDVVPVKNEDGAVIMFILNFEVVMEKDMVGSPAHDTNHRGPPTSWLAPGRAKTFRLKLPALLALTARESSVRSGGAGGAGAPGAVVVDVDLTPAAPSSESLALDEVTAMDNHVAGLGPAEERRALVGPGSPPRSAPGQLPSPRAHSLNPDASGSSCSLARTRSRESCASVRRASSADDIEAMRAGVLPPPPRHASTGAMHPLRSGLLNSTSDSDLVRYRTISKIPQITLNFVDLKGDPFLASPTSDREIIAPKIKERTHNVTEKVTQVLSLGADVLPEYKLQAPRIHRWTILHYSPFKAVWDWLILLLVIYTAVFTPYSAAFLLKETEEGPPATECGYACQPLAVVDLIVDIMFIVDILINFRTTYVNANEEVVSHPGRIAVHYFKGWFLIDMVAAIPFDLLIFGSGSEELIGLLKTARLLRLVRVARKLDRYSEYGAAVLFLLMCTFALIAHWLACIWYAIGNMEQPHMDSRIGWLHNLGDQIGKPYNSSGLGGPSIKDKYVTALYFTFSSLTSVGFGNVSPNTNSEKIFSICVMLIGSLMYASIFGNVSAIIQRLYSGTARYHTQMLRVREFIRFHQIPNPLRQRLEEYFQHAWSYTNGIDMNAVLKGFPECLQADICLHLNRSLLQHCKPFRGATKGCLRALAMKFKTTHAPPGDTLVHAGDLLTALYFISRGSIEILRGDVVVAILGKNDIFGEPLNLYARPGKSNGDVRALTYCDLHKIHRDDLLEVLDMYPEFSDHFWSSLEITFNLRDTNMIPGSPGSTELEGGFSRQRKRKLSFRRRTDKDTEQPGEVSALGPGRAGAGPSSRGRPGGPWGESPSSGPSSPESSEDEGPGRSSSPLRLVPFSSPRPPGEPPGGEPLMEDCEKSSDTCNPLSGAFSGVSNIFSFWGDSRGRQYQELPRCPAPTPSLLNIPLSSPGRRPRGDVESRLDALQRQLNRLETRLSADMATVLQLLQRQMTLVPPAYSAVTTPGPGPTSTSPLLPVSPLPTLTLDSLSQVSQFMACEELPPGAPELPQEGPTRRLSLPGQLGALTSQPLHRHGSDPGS

Row | Compound | hERG current change (%, negative = inhibition) at 1uM [%]
1 | COc1ccc(S(=O)(=O)n2ccnc2C)c(C)c1C | 14.6
2 | O=[N+]([O-])c1ccccc1Nc1cccnc1 | 11.2
3 | CCOC(=O)C1CCCN(C(=O)c2ccc(OC)c([N+](=O)[O-])c2)C1 (centres unmarked) | 8.92
4 | O=C(Nc1cccc(-n2cccn2)c1)C1CCCN(Cc2ccccc2F)C1 (centres unmarked) | 5.8
5 | C/C(CC(=O)Nc1ccccn1)=N\NC(=O)c1cccc(C)c1 | 6.29
6 | O=C(NCC1CC1)c1cc([N+](=O)[O-])cc([N+](=O)[O-])c1 | 12.6
7 | CCOc1ccc(S(=O)(=O)n2ccnc2)c2ccccc12 | 15
8 | COc1ccccc1-c1cc2nc(C)cc(C)n2n1 | 12.1
9 | O=c1c(-c2ccco2)[n+]([O-])c2ccccc2n1OCc1ccccc1 | 7.94
10 | O=C(O)C(=O)O.OC(COC(c1ccc(F)cc1)c1ccc(F)cc1)CN1CCCC(C(F)(F)F)C1 (centres unmarked) | 14
11 | CC(NC(=O)c1ccc(F)cc1)C(c1cccs1)N1CCN(C)CC1 (centres unmarked) | 7.38
12 | O=c1cc(CSc2nc3ccccc3[nH]2)c2ccccc2[nH]1 | -5.37
13 | Cc1cc(C)n2nc(C(=O)OCCOc3ccc(Br)cc3)nc2n1 | -21.3
14 | COc1cccc(NC(=O)C/C(C)=N/NC(=O)C2CCCCC2)c1 | 5.22
15 | CC1CCc2sc(C(=O)N3CCN(c4ncccn4)CC3)cc2C1 (centres unmarked) | 3.81
16 | CC(=O)O[C@H]1C[C@@]2(O)[C@@H](OC(=O)c3ccccc3)C3[C@@](C)([C@@H](O)C[C@H]4OC[C@@]34OC(C)=O)[C@@H](O)[C@H](OC(C)=O)C(=C1C)C2(C)C (some centres unmarked) | 6.25
17 | N/C(Cc1ccc([N+](=O)[O-])cc1)=N\OC(=O)CC1CCCCC1 | 3.58
18 | CC(C)CC1NC(=O)c2ccccc2-n2c1nc1ccc(F)cc1c2=O (centres unmarked) | 14.1
19 | CC(C)(C)N(Cc1ccccc1)C(=O)CN1C(=O)NC2(CCCCCC2)C1=O | 9.29
20 | COc1cccc2sc(NNC(=O)c3nc4ccccc4s3)nc12 | 11.2
21 | COc1ccccc1NS(=O)(=O)c1cc(C(=O)NCC(c2ccco2)N(C)C)ccc1C (centres unmarked) | 18.1
22 | O=C(NC1CCCN(c2ccc(C(F)(F)F)cn2)C1)c1ccnc(Cl)c1 (centres unmarked) | -9.21

Row | Compound | hERG current change (%, negative = inhibition) at 1uM [%]
23 | O=C(NCc1cccnc1)c1sc2ccccc2c1Cl | -5.89
24 | O=C(O)c1ccc(C(=O)C(=O)c2ccccc2)cc1 | -1.04
25 | Cc1cccc(CC2S/C(=N/c3ccccn3)NC2=O)c1 (centres unmarked) | 13.5
26 | CC(=O)c1cc2c(cc1NC(=O)Cn1nc(-c3ccc(F)cc3)ccc1=O)OCO2 | -0.614
27 | COCCCNC(=O)c1cc(Sc2ccc(F)cc2)nc2ccccc12 | 4.18
28 | Cc1ccccc1C(=O)N1CCN(c2ncnc3c2cnn3-c2ccccc2)CC1 | 10.2
29 | Cc1ccc(S(=O)(=O)Nc2cnc3ccccc3c2)cc1 | 9.18
30 | CCOC(=O)C1=C(C)NC2=C(C(=O)CCC2)C1c1cccnc1 (centres unmarked) | 6.56
31 | COc1ccccc1C(=O)NNC(=O)Cc1ccccc1 | 11.7
32 | S=C1N(c2ccccc2)CN(C2CCCCC2)CN1c1ccccc1 | 8.09
33 | COc1ccc(-c2ccc3nnc(SCC(=O)NCC4CCCO4)n3n2)cc1 (centres unmarked) | 4.44
34 | N#CC1(NC(=O)CN2c3cccc4cccc(c34)S2(=O)=O)CCCCC1 | 16.1
35 | COc1ccc2[nH]c(=O)c(CN(CCO)S(=O)(=O)c3ccc(C)cc3)cc2c1 | -1.16
36 | CN1/C(=C\C(=O)c2cccc([N+](=O)[O-])c2)Sc2ccccc21 | 12.3
37 | O=C(Cc1ccc(F)cc1)NCCc1cnc[nH]1 | 16.9
38 | COC(=O)CSc1nnnn1-c1cccc2ccccc12 | -2.31
39 | COc1ccc(CN=C2NN=C(c3ccccc3)CS2)cc1 | 11.9
40 | O=C1C2C3C=CC(C3=C(c3ccccc3)c3ccccc3)C2C(=O)N1CCO (centres unmarked) | -17.4
41 | O=C(CN1CCN(c2ccccc2F)CC1)NC(=O)NCc1ccccc1 | 2.96
42 | CC(=O)C(C)Oc1ccc2c3c(c(=O)oc2c1)CCCC3 (centres unmarked) | -0.665
43 | Cc1cccc(S(=O)(=O)c2c(N)n(Cc3ccco3)c3nc4ccccc4nc23)c1 | 11.8
44 | c1nc2nc3c(c(N4CCNCC4)n2n1)CCCC3 | 8.16

Row | Compound | hERG current change (%, negative = inhibition) at 1uM [%]
45 | CN1C(=O)/C(=C/c2ccccc2OCc2cccc(F)c2)NC1=S | 7.4
46 | CCn1cc(Cl)c(C(=O)Nc2nc3ccccc3n2CCN2CCCCC2)n1 | -51.8
47 | C[C@@H]1[C@H]2[C@@H](O[C@@H]3O[C@H](CO)[C@@H](O)[C@H](O)[C@H]3O)OC=C(C(=O)O)[C@H]2C[C@@H]1O | 15.4
48 | Cc1nn(CCO)c2ncc(C(=O)c3cc(Cl)ccc3O)cc12 | 12.4
49 | O=C1CC(C(=O)Nc2ccccc2)S/C(=N\NC(=O)c2ccccc2Cl)N1 (centres unmarked) | 11.1
50 | CC1CCCN(C(=O)CCCn2c(=S)[nH]c3ccccc3c2=O)C1 (centres unmarked) | 7.88
51 | CCn1cc(C(=O)NC2CCCc3c2cnn3-c2cccc(C)c2C)cn1 (centres unmarked) | 15.8
52 | COC(=O)c1ccc(N2CCN(C)CC2)c(NC(=O)c2cccnc2)c1 | -1.74
53 | O=C(c1ccc(Cl)cc1)c1ccc(Oc2cc(NN3CCCCC3)c([N+](=O)[O-])cc2[N+](=O)[O-])cc1 | 4.18
54 | O=C(CCC(=O)Nc1nnc(C2CCCCC2)s1)Nc1ccccc1 | 19.7
55 | O=C(Cc1cccs1)N1CCC(c2nc3c(nnn3Cc3ccccc3)c(=O)[nH]2)CC1 | 0.845
56 | O=C(Cc1cc(=O)[nH]c(=O)[nH]1)NCC1CCCO1 (centres unmarked) | 6.43
57 | CCOc1cccc(C(=O)Nc2ccc(NC(=O)c3ccccc3)c(C)c2)c1 | 8.16
58 | COc1ccc2cc3c(N)nn(C(=O)c4ccc(F)cc4)c3nc2c1 | 16
59 | Cc1cc(C)n2nc(SCCCC(=O)c3ccc(F)cc3)nc2n1 | -0.906
60 | CCOc1ccc(C2NC(=O)c3sc(=S)n(-c4ccccc4)c3N2)cc1 (centres unmarked) | -0.189
61 | C=CCn1c(O)c(/C=N/NC(=O)c2ccncc2)c(=O)[nH]c1=O | 17
62 | O=C(NC1CCC(O)CC1)c1cccc2cccnc12 (centres unmarked) | 11
63 | O=C(NCCCCCCNC(=O)OCCO)OCCO | 17.6
64 | CCN1CCN(Cc2ccc(NC(=O)c3ccc(C)c(NC(=O)C(=O)c4c[nH]c5ccccc45)c3)cc2C(F)(F)F)CC1 | 9.58
65 | COc1ccc(NC(=O)COC(=O)CCCC2=NS(=O)(=O)c3ccccc3N2)cc1 | 19.9
66 | COc1c2ccoc2c(OC)c2oc(=O)ccc12 | -1.72

Row | Compound | hERG current change (%, negative = inhibition) at 1uM [%]
67 | CCN1C(=O)/C(=C/c2cccs2)S/C1=N\S(=O)(=O)c1ccc(C)cc1 | 14.7
68 | CC(C)(C)[C@H]1C=C(C(=O)NCc2nc3ccccc3[nH]2)O[C@@H](OCCCCO)C1 | 12.3
69 | COc1ccc(OC)c(C(C(=O)NC2CCCCC2)N(C(=O)c2snc(C(N)=O)c2N)c2ccccc2OC)c1 (centres unmarked) | 19.2
70 | Fc1ccc(-c2noc(C3CCN(Cc4cccnc4)CC3)n2)cc1 | -9.35
71 | N#Cc1ccccc1COc1ccc(/C=C/C(=O)O)cc1 | 9.11
72 | Cn1cccc1-c1nc2ccc(NC(=O)c3ccc([N+](=O)[O-])cc3)cc2[nH]1 | -2.9
73 | O=c1ccc(OCCOc2ccccc2)nn1-c1ccccc1 | -3
74 | CCc1ccccc1Nc1nc(N)nc(COC(=O)c2c(C)noc2C)n1 | 4.89
75 | COC(=O)C1C(=O)C=C(Nc2ccc(F)cc2F)CC1c1ccccc1 (centres unmarked) | 8.97
76 | CC(C)c1ccc(NC(=O)COC(=O)c2cc(=O)[nH]c3ccccc23)cc1 | 9.93
77 | CC1(OC(=O)C2CCCC2)C(=O)C=C2C=C(c3ccsc3)N(C3CC3)C=C2C1=O (centres unmarked) | 16.1
78 | COc1ccccc1C(=O)Nc1ccc(S(=O)(=O)Nc2cnc3ccccc3n2)cc1 | 5.66
79 | COc1ccc2c(c1)[C@H]1[C@H](CO2)[C@H](c2ccccc2)[C@]2(C)C(=O)Nc3cc(F)c(F)cc3C(=O)N12 | 11.1
80 | CSc1ccc(NC(=O)Nc2ccccc2C(N)=O)cc1 | 6.12
81 | Cc1ccc(S(=O)(=O)Cc2ccc(C(=O)NCCCN3CCCC3=O)o2)cc1 | 12.8
82 | CCOC(=O)c1c(S(=O)(=O)NCC2CCN(Cc3cccc(F)c3)CC2)c(C)n(C)c1C | -14.1
83 | Cc1ccc(-c2c(C(=O)NNC(=S)NCC3CCCO3)csc2C)cc1 (centres unmarked) | 24
84 | CC1Cc2ccccc2N1C(=O)c1nn(C)cc1Br (centres unmarked) | 20.9
85 | O=C(CN1CCN(c2ccccc2O)CC1)NC(=O)NC1CCCC1 | 5.02
86 | Cc1ccc(N(CC(=O)NCc2ccc(F)cc2)S(=O)(=O)c2c(C)n[nH]c2C)cc1 | -4.25
